System: P2X7R2/2 C57BL6 mice transplanted with BALB/c islets
Experiment: Allogeneic islet transplantation into P2X7R-/- C57BL6 recipients
Conditions: oATP-treated P2X7R2/2 recipients, n=5

periodate-oxidized ATP [oATP]
islet graft MST: 26 days

From patent US11452781B2, “Method of preventing and treating type 1 diabetes, allograft rejection and lung fibrosis (by targeting the ATP/P2X7R axis)” (CHILDREN'S MEDICAL CENTER CORPORATION, priority 2013, dated 2022)
